# Source: the antibiotic and cytotoxicity screens of Wong et al. (2023)
# This is one part of the list.
# Test system: HepG2
# Assay: cytotoxicity call (relative viability < 0.9)
# Settings: 10 µM
row,Structure (SMILES),cytotoxicity call
1,C[C@H]1CN([C@@H](C)CO)C(=O)c2cc(C#CC3(O)CCCC3)cnc2O[C@@H]1CN(C)C(=O)Cc1cccnc1,inactive
2,COc1ccc(S(=O)(=O)N(C)C[C@@H]2Oc3ccc(NC(=O)C4CC4)cc3C(=O)N([C@@H](C)CO)C[C@@H]2C)cc1,inactive
3,NC(=S)Nc1nc2ccccc2[nH]c1=O,inactive
4,COc1ccc(S(=O)(=O)Nc2cccc3c2O[C@@H](CN(C)CC2CC2)[C@@H](C)CN([C@@H](C)CO)C3=O)cc1,inactive
5,COC(=O)C[C@H]1CC[C@H]2[C@@H](COC[C@@H](O)CN2S(=O)(=O)c2ccccc2C)O1,inactive
6,COc1cccc(NC(=O)N(C)C[C@@H]2Oc3cc(C#CC4(O)CCCC4)ccc3S(=O)(=O)N([C@H](C)CO)C[C@@H]2C)c1,inactive
7,COc1ccc(NC(=O)N(C)C[C@H]2Oc3ccc(NC(=O)CCCN(C)C)cc3C(=O)N([C@@H](C)CO)C[C@@H]2C)cc1,inactive
8,C[C@@H]1CN([C@H](C)CO)C(=O)c2cc(NC(=O)Nc3ccccc3)ccc2O[C@@H](C)CCCCO[C@@H]1CN(C)Cc1ccc(C(F)(F)F)cc1,active
9,Cc1noc(C)c1NC(=O)N(C)C[C@@H]1OCCCC[C@H](C)Oc2ccc(NC(=O)CCC(F)(F)F)cc2C(=O)N([C@H](C)CO)C[C@H]1C,inactive
10,Cc1cc2cc3c(C)cc(=O)oc3c(C)c2o1,inactive
11,COc1ccccc1S(=O)(=O)N[C@@H]1C=C[C@H](CC(=O)N2CCOCC2)O[C@H]1CO,inactive
12,Cc1noc(C)c1S(=O)(=O)N(C)C[C@@H]1Oc2ccc(NC(=O)Cc3ccccc3)cc2CC(=O)N([C@H](C)CO)C[C@@H]1C,inactive
13,O=C(O)c1n[nH]c2c1CCC2,inactive
14,Cc1noc(NS(=O)(=O)c2ccc(N)cc2)c1C,inactive
15,COCC(=O)Nc1ccc2c(c1)[C@@H]1C[C@@H](CC(=O)N3CCOCC3)O[C@H](CO)[C@@H]1O2,inactive
16,COc1ccc(CNC(=O)C[C@H]2CC[C@H]3[C@H](COc4ccc(NC(=O)C5CC5)cc4C(=O)N3C)O2)cc1,inactive
17,C[C@@H]1CCCCO[C@@H](CN(C)Cc2ccncc2)[C@H](C)CN([C@H](C)CO)C(=O)c2cc(NC(=O)Cc3ccccc3)ccc2O1,inactive
18,C[C@@H]1CCCCO[C@H](CN(C)Cc2ccncc2)[C@H](C)CN([C@H](C)CO)C(=O)c2cc(NC(=O)Nc3ccccc3)ccc2O1,inactive
19,Cc1ccc(S(=O)(=O)Nc2ccc3c(c2)C(=O)N([C@H](C)CO)C[C@H](C)[C@H](CN(C)S(=O)(=O)c2ccc(F)cc2)O3)cc1,inactive
20,Cc1ccc(S(=O)(=O)N(C)C[C@@H]2Oc3ccc(NC(=O)CCN4CCOCC4)cc3CC(=O)N([C@H](C)CO)C[C@@H]2C)cc1,inactive
21,C[C@@H]1CCCCO[C@@H](CN(C)Cc2ccc(Cl)c(Cl)c2)[C@H](C)CN([C@@H](C)CO)C(=O)c2cc(NS(=O)(=O)c3ccccc3)ccc2O1,active
22,NC(=O)[C@@H]1CCOC1,inactive
23,C[C@@H]1CCCCO[C@@H](CN(C)S(=O)(=O)c2ccc(F)cc2)[C@H](C)CN([C@H](C)CO)C(=O)c2cc(NC(=O)Nc3ccc(F)cc3)ccc2O1,active
24,COCCCN(C[C@]1(O)CC[C@H]2C3=CC=C4C[C@@H](O)CC[C@]4(C)[C@@H]3CC[C@@]21C)C(=O)O[C@H]1C[C@@H](C)CC[C@@H]1C(C)C,inactive
25,COc1ccc(S(=O)(=O)Nc2ccc3c(c2)CC(=O)N([C@@H](C)CO)C[C@H](C)[C@H](CN(C)S(=O)(=O)c2cn(C)cn2)O3)cc1,inactive
26,C[C@@H]1CN([C@H](C)CO)C(=O)c2cccc(NC(=O)Nc3cccc4ccccc34)c2O[C@H]1CN(C)C(=O)Nc1ccccc1,inactive
27,Cc1ccc(S(=O)(=O)N(C)C[C@@H]2Oc3ccc(NC(=O)NC(C)C)cc3CC(=O)N([C@@H](C)CO)C[C@@H]2C)cc1,inactive
28,C[C@@H]1CN([C@H](C)CO)C(=O)c2cccc(NS(C)(=O)=O)c2O[C@H]1CN(C)C(=O)NC1CCCCC1,inactive

# Test system: S. aureus RN4220
# Assay: growth inhibition call (relative growth <= 0.2)
# Settings: 50 µM
row,Structure (SMILES),growth inhibition call
1,C[C@H]1CN([C@@H](C)CO)C(=O)c2cc(NS(C)(=O)=O)ccc2O[C@@H]1CN(C)C(=O)NC1CCCCC1,inactive
2,C[C@H](CO)N1C[C@H](C)[C@H](CN(C)Cc2ccc(C(F)(F)F)cc2)Oc2ccc(NC(=O)Cc3cn(C)c4ccccc34)cc2C1=O,inactive
3,Cc1ccccc1S(=O)(=O)N1C[C@@H](O)COC[C@H]2O[C@H](CC(=O)NCc3ccc(Cl)c(Cl)c3)CC[C@@H]21,inactive
4,CC1OC(OC2C(O)CC(OC3C(O)CC(OC4CCC5(C)C(CCC6C5CC(O)C5(C)C(C7=CC(=O)OC7)CCC65O)C4)OC3C)OC2C)CC(O)C1O (stereo not drawn),inactive
5,C[C@@H]1CN([C@@H](C)CO)C(=O)Cc2cc(NC(=O)Nc3cccc4ccccc34)ccc2O[C@H]1CN(C)S(=O)(=O)c1ccc(F)cc1,inactive
6,C[C@H](CO)N1C[C@H](C)[C@H](CN(C)Cc2ccc(-c3ccccc3)cc2)Oc2ccc(NS(=O)(=O)c3ccc(F)cc3)cc2C1=O,inactive
7,CC(=O)N1[C@@H](CO)[C@@H](c2ccccc2)C12CN(C(=O)CN1CCOCC1)C2,inactive
8,C[C@H](CO)N1C[C@H](C)[C@@H](CN(C)Cc2ccc(Oc3ccccc3)cc2)Oc2ccc(NC(=O)NC3CCCCC3)cc2C1=O,inactive
9,CS(=O)(=O)N(CCC#N)Cc1ccco1,inactive
10,Cc1noc(C)c1NC(=O)Nc1ccc2c(c1)CC(=O)N([C@H](C)CO)C[C@H](C)[C@H](CN(C)S(=O)(=O)c1cccs1)O2,inactive
11,CCCc1cc(=O)oc2cc3occ(-c4ccccc4)c3cc12,inactive
12,C[C@@H]1CN([C@H](C)CO)C(=O)c2cc(NC(=O)C3CCCCC3)ccc2O[C@@H]1CN(C)Cc1ccc(Oc2ccccc2)cc1,inactive
13,C[C@H]1CN([C@@H](C)CO)C(=O)c2cc(C#CC3(O)CCCC3)cnc2O[C@@H]1CN(C)C(=O)Cc1cccnc1,inactive
14,COc1ccc(S(=O)(=O)N(C)C[C@@H]2Oc3ccc(NC(=O)C4CC4)cc3C(=O)N([C@@H](C)CO)C[C@@H]2C)cc1,inactive
15,NC(=S)Nc1nc2ccccc2[nH]c1=O,inactive
16,COc1ccc(S(=O)(=O)Nc2cccc3c2O[C@@H](CN(C)CC2CC2)[C@@H](C)CN([C@@H](C)CO)C3=O)cc1,inactive
17,COC(=O)C[C@H]1CC[C@H]2[C@@H](COC[C@@H](O)CN2S(=O)(=O)c2ccccc2C)O1,inactive
18,COc1cccc(NC(=O)N(C)C[C@@H]2Oc3cc(C#CC4(O)CCCC4)ccc3S(=O)(=O)N([C@H](C)CO)C[C@@H]2C)c1,inactive
19,COc1ccc(NC(=O)N(C)C[C@H]2Oc3ccc(NC(=O)CCCN(C)C)cc3C(=O)N([C@@H](C)CO)C[C@@H]2C)cc1,inactive
20,C[C@@H]1CN([C@H](C)CO)C(=O)c2cc(NC(=O)Nc3ccccc3)ccc2O[C@@H](C)CCCCO[C@@H]1CN(C)Cc1ccc(C(F)(F)F)cc1,inactive

row,Structure (SMILES),growth inhibition call
1,Cc1noc(C)c1NC(=O)N(C)C[C@@H]1OCCCC[C@H](C)Oc2ccc(NC(=O)CCC(F)(F)F)cc2C(=O)N([C@H](C)CO)C[C@H]1C,inactive
2,Cc1cc2cc3c(C)cc(=O)oc3c(C)c2o1,inactive
3,COc1ccccc1S(=O)(=O)N[C@@H]1C=C[C@H](CC(=O)N2CCOCC2)O[C@H]1CO,inactive
4,Cc1noc(C)c1S(=O)(=O)N(C)C[C@@H]1Oc2ccc(NC(=O)Cc3ccccc3)cc2CC(=O)N([C@H](C)CO)C[C@@H]1C,inactive
5,O=C(O)c1n[nH]c2c1CCC2,inactive
6,Cc1noc(NS(=O)(=O)c2ccc(N)cc2)c1C,inactive
7,COCC(=O)Nc1ccc2c(c1)[C@@H]1C[C@@H](CC(=O)N3CCOCC3)O[C@H](CO)[C@@H]1O2,inactive
8,COc1ccc(CNC(=O)C[C@H]2CC[C@H]3[C@H](COc4ccc(NC(=O)C5CC5)cc4C(=O)N3C)O2)cc1,inactive
9,C[C@@H]1CCCCO[C@@H](CN(C)Cc2ccncc2)[C@H](C)CN([C@H](C)CO)C(=O)c2cc(NC(=O)Cc3ccccc3)ccc2O1,inactive
10,C[C@@H]1CCCCO[C@H](CN(C)Cc2ccncc2)[C@H](C)CN([C@H](C)CO)C(=O)c2cc(NC(=O)Nc3ccccc3)ccc2O1,inactive
11,Cc1ccc(S(=O)(=O)Nc2ccc3c(c2)C(=O)N([C@H](C)CO)C[C@H](C)[C@H](CN(C)S(=O)(=O)c2ccc(F)cc2)O3)cc1,inactive
12,Cc1ccc(S(=O)(=O)N(C)C[C@@H]2Oc3ccc(NC(=O)CCN4CCOCC4)cc3CC(=O)N([C@H](C)CO)C[C@@H]2C)cc1,inactive
13,C[C@@H]1CCCCO[C@@H](CN(C)Cc2ccc(Cl)c(Cl)c2)[C@H](C)CN([C@@H](C)CO)C(=O)c2cc(NS(=O)(=O)c3ccccc3)ccc2O1,inactive
14,NC(=O)[C@@H]1CCOC1,inactive
15,C[C@@H]1CCCCO[C@@H](CN(C)S(=O)(=O)c2ccc(F)cc2)[C@H](C)CN([C@H](C)CO)C(=O)c2cc(NC(=O)Nc3ccc(F)cc3)ccc2O1,inactive
16,COCCCN(C[C@]1(O)CC[C@H]2C3=CC=C4C[C@@H](O)CC[C@]4(C)[C@@H]3CC[C@@]21C)C(=O)O[C@H]1C[C@@H](C)CC[C@@H]1C(C)C,inactive
17,COc1ccc(S(=O)(=O)Nc2ccc3c(c2)CC(=O)N([C@@H](C)CO)C[C@H](C)[C@H](CN(C)S(=O)(=O)c2cn(C)cn2)O3)cc1,inactive
18,C[C@@H]1CN([C@H](C)CO)C(=O)c2cccc(NC(=O)Nc3cccc4ccccc34)c2O[C@H]1CN(C)C(=O)Nc1ccccc1,inactive
19,Cc1ccc(S(=O)(=O)N(C)C[C@@H]2Oc3ccc(NC(=O)NC(C)C)cc3CC(=O)N([C@@H](C)CO)C[C@@H]2C)cc1,inactive
20,C[C@@H]1CN([C@H](C)CO)C(=O)c2cccc(NS(C)(=O)=O)c2O[C@H]1CN(C)C(=O)NC1CCCCC1,inactive
